Laboratory results from PubChem BioAssay (Tox21).
“And” between values parts separate entries of the source, which are not always exact repeats. Identical values can stand only once. The inconclusive results got no clear call from the source; some entries with a clear call stand among them for comparison. Where the call is inconclusive, the potency comes from a doubtful curve fit. More than one record can exist for a structure, and the calls need not agree. The source made the active and inactive calls. Unless noted, calls come from the whole dose curve; as a rule, active = well fitted curve in the direction sought with a large enough effect in the repeat runs; inconclusive = weak or mixed curves; inactive = no such curve, though single readings can be large; an effect the other way counts as inactive or inconclusive.

Columns and labels:
[1] = qHTS assay to identify aromatase inhibitors - cell viability counter screen (AID 743084); conditions: MCF-7 aro ERE viability, CellTiter-Fluor, 24 h; activity change, negative = cytotoxicity: at 70.3 µM (top of the series);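 note: cells stimulated with testosterone during compound exposure; nearly all actives have a fitted effect of over 55% in size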
[2] = qHTS assay to identify small molecule that activate the aryl hydrocarbon receptor (AhR) signaling pathway - cell viability counter screen (AID 743086); note: nearly all actives have a fitted effect of over 45% in size
Summary of the method: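 Cytotoxicity counter screen: CellTiter-Fluor signal (30 min, 37 C) in 4000 HepG2 cells/well carrying the DRE-luciferase reporter, following 24 h compound exposure at 37 C.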

[3] = target: Peroxisome proliferator-activated receptor gamma (Homo sapiens) (UniProt P37231); assay: qHTS assay to identify small molecule antagonists of the peroxisome proliferator-activated receptor gamma (PPARg) signaling pathway (AID 743191; calls by dose curve; note: nearly all actives have a fitted effect of over 30% in size; for ratio activity, negative = inhibition: % is set by controls: 0 for no effect and ±100 for the full control effect); conditions: HEK293H PPARg-UAS-bla, beta-lactamase ratio, antagonist, 17 h; ratio activity, negative = inhibition: at 62.6 µM (top of the series) unless noted
UniProt P37231, sequence (P37231 whole entry, looked up): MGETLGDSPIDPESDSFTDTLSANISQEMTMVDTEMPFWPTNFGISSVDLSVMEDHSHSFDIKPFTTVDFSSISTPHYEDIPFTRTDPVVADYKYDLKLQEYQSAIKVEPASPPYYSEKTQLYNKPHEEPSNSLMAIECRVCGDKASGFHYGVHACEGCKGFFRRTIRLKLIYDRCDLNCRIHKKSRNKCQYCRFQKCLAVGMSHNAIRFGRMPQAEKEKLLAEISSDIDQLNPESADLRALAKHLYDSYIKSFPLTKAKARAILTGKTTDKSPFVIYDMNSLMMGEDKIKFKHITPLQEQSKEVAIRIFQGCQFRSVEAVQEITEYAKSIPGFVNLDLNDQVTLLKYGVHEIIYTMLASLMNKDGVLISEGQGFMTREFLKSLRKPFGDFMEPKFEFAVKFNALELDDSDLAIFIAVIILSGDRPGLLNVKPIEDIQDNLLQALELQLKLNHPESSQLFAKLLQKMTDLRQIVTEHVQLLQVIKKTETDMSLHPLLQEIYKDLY
Summary of the method: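 Beta-lactamase reporter under UAS control in HEK293H PPARg-bla cells; compound treatment 17 h at 37C. Read-out: fluorescence intensity after 1 h room-temperature incubation with LiveBLAzer B/G FRET substrate.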

[4] = qHTS assay for small molecule agonists of the antioxidant response element (ARE) signaling pathway (AID 743202; active = well fitted activation curve with a large enough effect in the signal ratio in the repeat runs, not every such curve was filed as active; inconclusive = weak or mixed curves, or effect the other way; inactive = no such curve, though single readings can be large or run the other way; the % refers to the signal ratio); conditions: HepG2 ARE-bla reporter, beta-lactamase FRET, 16 h; activation: at 73.3 µM (top of the series) unless noted
Summary of the method: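 Quantitative high-throughput format in HepG2 cells bearing an integrated ARE-beta-lactamase reporter. Compound exposure lasted 16 h at 37 C, and fluorescence was read 2 h after adding LiveBLAzer B/G substrate at room temperature.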

[5] = qHTS assay for small molecule agonists of the antioxidant response element (ARE) signaling pathway - cell viability counter screen (AID 743203; calls by dose curve; note: nearly all actives have a fitted effect of over 55% in size; for viability change, negative = cytotoxic: % is set by controls: 0 for no effect and ±100 for the full control effect); conditions: ARE-bla HepG2 viability, CellTiter-Glo luminescence, 16 h; viability change, negative = cytotoxic: at 73.3 µM (top of the series)
Summary of the method: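 HepG2 cells carrying ARE-driven beta-lactamase; 2,000 cells/well; 5 hrs plating; compound pinned from DMSO; 16 hrs 37C/5% CO2; CellTiter-Glo added; 30 min RT; luminescence.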

[6] = qHTS assay for small molecule activators of the heat shock response signaling pathway - cell viability counter screen (AID 743209); conditions: HSE-bla HeLa viability, CellTiter-Glo luminescence, 5 h; activity change, negative = cytotoxicity: at 62.6 µM (top of the series); note: nearly all actives have a fitted effect of over 50% in size; for activity change, negative = cytotoxicity: % is set by controls: 0 for no effect and ±100 for the full control effect
Summary of the method: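 Luminescence from CellTiter-Glo, added after the beta-lactamase FRET read, gave the viability signal. Cells were HSE-bla HeLa treated with DMSO-dissolved compounds for 5 h at 37 C following overnight plating.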

[7] = qHTS assay for small molecule activators of the heat shock response signaling pathway (AID 743210; active = well fitted activation curve with a large enough effect in the signal ratio in the repeat runs, with a control signal flat, not every such curve was filed as active; inconclusive = weak or mixed curves; the % refers to the signal ratio); conditions: HeLa HSE-bla reporter, beta-lactamase ratio, 5 h; activation: at 62.6 µM (top of the series)
Summary of the method: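 HeLa HSE-bla cells, overnight plating; cpd in DMSO 5 h, 37 C; LiveBLAzer B/G FRET substrate 2.5 h RT; fluorescence intensity read.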

[8] = target: Peroxisome proliferator-activated receptor delta (Homo sapiens) (UniProt Q03181); assay: qHTS assay to identify small molecule agonists of the peroxisome proliferator-activated receptor delta (PPARd) signaling pathway (AID 743212; calls by dose curve; for activation: % is set by controls: 0 for no effect and ±100 for the full control effect); conditions: HEK293H PPARd-UAS-bla, beta-lactamase FRET ratio, 17 h
UniProt Q03181, sequence (Q03181 whole entry, looked up): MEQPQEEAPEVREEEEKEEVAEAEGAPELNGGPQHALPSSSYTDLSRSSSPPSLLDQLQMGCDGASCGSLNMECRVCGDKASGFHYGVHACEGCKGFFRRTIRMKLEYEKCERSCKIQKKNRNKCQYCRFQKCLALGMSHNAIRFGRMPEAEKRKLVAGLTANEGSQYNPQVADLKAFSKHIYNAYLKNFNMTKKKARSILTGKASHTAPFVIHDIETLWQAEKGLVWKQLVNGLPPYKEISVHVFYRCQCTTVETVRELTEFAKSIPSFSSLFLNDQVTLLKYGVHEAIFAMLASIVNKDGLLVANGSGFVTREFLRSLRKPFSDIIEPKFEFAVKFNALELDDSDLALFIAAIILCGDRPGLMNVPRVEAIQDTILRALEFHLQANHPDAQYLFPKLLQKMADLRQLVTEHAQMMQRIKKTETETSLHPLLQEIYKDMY
Summary of the method: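 HEK293H PPARd-bla cells; 5 h preincubation 37 C/5% CO2; compound (DMSO) 37 C; LiveBLAzer B/G FRET substrate 2 h RT; fluorescence intensity.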

[9] = qHTS assay to identify small molecule antagonists of the peroxisome proliferator-activated receptor delta (PPARd) signaling pathway - cell viability counter screen (AID 743213); conditions: PPARd-bla HEK293H viability, CellTiter-Glo luminescence, 17 h; viability change, negative = cytotoxic: at 62 µM (top of the series) unless noted; note: nearly all actives have a fitted effect of over 50% in size
Summary of the method: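 In this counter screen, HEK293H cells carrying a UAS-beta-lactamase reporter are co-treated with test compounds and 300 nM L165041 (final) for 17 h at 37 C; cell viability is quantified by CellTiter-Glo luminescence.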

[10] = target: Peroxisome proliferator-activated receptor delta (Homo sapiens) (UniProt Q03181); assay: qHTS assay to identify small molecule antagonists of the peroxisome proliferator-activated receptor delta (PPARd) signaling pathway (AID 743215; active = well fitted inhibition curve with a large enough effect in the signal ratio in the repeat runs, not every such curve was filed as active; inconclusive = weak or mixed curves, or effect the other way; inactive = no such curve, though single readings can be large or run the other way; the % refers to the signal ratio;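 note: cells stimulated with agonist L165041 at 300 nM final during compound exposure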); conditions: HEK293H PPARd-UAS-bla, beta-lactamase FRET ratio, antagonist, 17 h; ratio activity, negative = inhibition: at 62 µM (top of the series) unless noted
Summary of the method: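 Read-out is beta-lactamase FRET fluorescence, measured 2 h after substrate addition at room temperature. Beforehand, UAS-bla HEK293H cells carrying the PPARd reporter were exposed to compounds with L165041 at 300 nM final for 17 h at 37 C.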

[11] = qHTS assay to identify small molecule agonists of the farnesoid-X-receptor (FXR) signaling pathway - cell viability counter screen (AID 743218); conditions: FXR-bla HEK293T viability, CellTiter-Glo luminescence, 16 h; viability change, negative = cytotoxic: at 62.6 µM (top of the series) unless noted; note: nearly all actives have a fitted effect of over 45% in size
Summary of the method: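 HEK 293T FXR-bla cells; 5 h pre-incubation, 16 h compound exposure at 37 C; LiveBLAzer substrate 2 h RT, then CellTiter-Glo 30 min RT, luminescence.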

[12] = target: Vitamin D3 receptor (Homo sapiens) (UniProt P11473); assay: qHTS assay to identify small molecule antagonists of the vitamin D receptor (VDR) signaling pathway (AID 743223; active = well fitted inhibition curve with a large enough effect in the signal ratio in the repeat runs, not every such curve was filed as active; inconclusive = weak or mixed curves, or effect the other way; inactive = no such curve, though single readings can be large or run the other way; the % refers to the signal ratio); conditions: VDR-UAS-bla HEK293T, beta-lactamase FRET ratio, 16 h; activity change, negative = inhibition: at 61 µM (top of the series) unless noted
UniProt P11473, sequence (P11473 whole entry, looked up): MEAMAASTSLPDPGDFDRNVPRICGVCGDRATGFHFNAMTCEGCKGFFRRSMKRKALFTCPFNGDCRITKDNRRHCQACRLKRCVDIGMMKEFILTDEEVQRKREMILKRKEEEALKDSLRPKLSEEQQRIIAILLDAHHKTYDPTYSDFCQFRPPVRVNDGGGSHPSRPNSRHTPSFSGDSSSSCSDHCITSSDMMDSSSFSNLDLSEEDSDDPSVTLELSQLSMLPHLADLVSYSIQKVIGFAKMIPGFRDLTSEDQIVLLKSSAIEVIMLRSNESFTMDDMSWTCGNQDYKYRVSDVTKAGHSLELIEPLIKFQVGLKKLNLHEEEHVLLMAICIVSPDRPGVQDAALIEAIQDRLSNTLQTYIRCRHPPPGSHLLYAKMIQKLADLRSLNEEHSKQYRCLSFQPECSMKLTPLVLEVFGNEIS
Summary of the method: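 Beta-lactamase activity in VDR-bla cells is measured by FRET substrate fluorescence (2 h, room temperature) after cells spend 16 h at 37C with test compound and 3 nM final 1alpha,25-dihydroxyvitamin D3.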

[13] = target: Peroxisome proliferator-activated receptor gamma (Homo sapiens) (UniProt P37231); assay: qHTS assay to identify small molecule agonists of the peroxisome proliferator-activated receptor gamma (PPARg) signaling pathway (AID 743094; active = well fitted activation curve with a large enough effect in the signal ratio in the repeat runs, not every such curve was filed as active; inconclusive = weak or mixed curves, or effect the other way; inactive = no such curve, though single readings can be large or run the other way; the % refers to the signal ratio); conditions: HEK293H PPARg-UAS-bla, beta-lactamase FRET ratio, 17 h; activation: at 57 µM (top of the series) unless noted
Summary of the method: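 Beta-lactamase FRET fluorescence was the read-out after a 1 h room-temperature substrate step, following 17 h compound treatment at 37C of HEK293H cells expressing a UAS-driven bla reporter responsive to PPARg.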

[14] = target: Bile acid receptor (Homo sapiens) (UniProt Q96RI1); assay: qHTS assay to identify small molecule antagonists of the farnesoid-X-receptor (FXR) signaling pathway (AID 743217; active = well fitted inhibition curve with a large enough effect in the signal ratio in the repeat runs, not every such curve was filed as active; inconclusive = weak or mixed curves, or effect the other way; inactive = no such curve, though single readings can be large or run the other way; the % refers to the signal ratio); conditions: HEK293T FXR-UAS-bla, beta-lactamase ratio, CDCA-stimulated, 16 h; activity change, negative = inhibition: at 62.6 µM (top of the series) unless noted
UniProt Q96RI1, sequence (Q96RI1 whole entry, looked up): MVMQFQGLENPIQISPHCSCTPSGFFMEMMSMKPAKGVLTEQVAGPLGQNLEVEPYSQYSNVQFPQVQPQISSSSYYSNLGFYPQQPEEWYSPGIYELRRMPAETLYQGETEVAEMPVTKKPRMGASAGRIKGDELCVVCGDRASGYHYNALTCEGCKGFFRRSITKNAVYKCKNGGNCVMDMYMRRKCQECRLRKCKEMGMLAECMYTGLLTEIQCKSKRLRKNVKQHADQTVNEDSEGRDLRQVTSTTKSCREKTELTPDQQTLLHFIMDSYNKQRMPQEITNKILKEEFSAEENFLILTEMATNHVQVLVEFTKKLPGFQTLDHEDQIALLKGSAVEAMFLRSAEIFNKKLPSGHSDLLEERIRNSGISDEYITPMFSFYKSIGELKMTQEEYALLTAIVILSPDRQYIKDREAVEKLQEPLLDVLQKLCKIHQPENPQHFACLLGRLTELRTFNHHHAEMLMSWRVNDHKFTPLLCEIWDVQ
Summary of the method: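 HEK 293T FXR-UAS-bla, 5000 cells/well; compound + CDCA 50 uM final; 16 h, 37 °C; B/G FRET substrate 2 h RT; fluorescence.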

[15] = target: Bile acid receptor (Homo sapiens) (UniProt Q96RI1); assay: qHTS assay to identify small molecule agonists of the farnesoid-X-receptor (FXR) signaling pathway (AID 743220; active = well fitted activation curve with a large enough effect in the signal ratio in the repeat runs, not every such curve was filed as active; inconclusive = weak or mixed curves, or effect the other way; the % refers to the signal ratio); conditions: HEK293T FXR-UAS-bla, beta-lactamase FRET ratio, 16 h; activation: at 62.6 µM (top of the series) unless noted
Summary of the method: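 Beta-lactamase reporter under UAS control in GeneBLAzer FXR HEK 293T cells (5000/well) measured with LiveBLAzer FRET substrate after 2 h at room temperature. Compound exposure lasted 16 h at 37C.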

[16] = target: Vitamin D3 receptor (Homo sapiens) (UniProt P11473); assay: qHTS assay to identify small molecule agonists of the vitamin D receptor (VDR) signaling pathway (AID 743222; calls by dose curve); conditions: HEK293T VDR-UAS-bla, beta-lactamase FRET ratio, 16 h; activation: at 63.5 µM (top of the series) unless noted
Summary of the method: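 VDR-bla cells, 2,000/well; 4 h preincubation 37C; cpd (DMSO) 16 h; LiveBLAzer B/G substrate 2 h RT; fluorescence intensity read.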

[17] = qHTS assay to identify small molecule antagonists of the peroxisome proliferator-activated receptor gamma (PPARg) signaling pathway - cell viability counter screen (AID 743194); conditions: PPARg-bla HEK293H viability, CellTiter-Glo luminescence, 17 h, co-treated with 50 nM rosiglitazone; activity change, negative = cytotoxicity: at 62.6 µM (top of the series); note: nearly all actives have a fitted effect of over 55% in size
Summary of the method: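 Viability was measured as CellTiter-Glo luminescence in GeneBLAzer PPARg UAS-bla HEK293H cells. These cells had been exposed 17 h at 37 C to compounds together with rosiglitazone at 50 nM final, with the beta-lactamase readout taken in the same wells.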

[18] = qHTS assay to identify small molecule agonists of the peroxisome proliferator-activated receptor delta (PPARd) signaling pathway - cell viability counter screen (AID 743211); conditions: PPARd-bla HEK293H viability, CellTiter-Glo luminescence, 17 h; activity change, negative = cytotoxicity: at 62.6 µM (top of the series); note: nearly all actives have a fitted effect of over 55% in size
Summary of the method: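 Following 5 h plating at 37 C and 5% CO2, PPARd UAS-bla HEK293H cells took up test compounds for 17 h. Viability was quantified by luminescence 30 min after CellTiter-Glo addition at room temperature.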

[19] = activation: at 62.6 µM (top of the series) unless noted
Potency is the fitted concentration of half-maximal effect; tags give direction and shape of the fitted curve or compound fluorescence and quenching.

NCCNc1cccc2ccccc12
Potency [1]: inconclusive: 68.5 µM [cytotoxic] | Potency [2]: inconclusive: 33.5 µM [falling, single point] and inconclusive: 68.5 µM [falling, single point] and inconclusive: 75.1 µM [falling, single point] | ratio activity, negative = inhibition [3]: inconclusive: -6.32% | Potency [4]: inconclusive: 68.5 µM and inconclusive: 66.9 µM and inconclusive: 13.3 µM | Potency [5]: inconclusive: 68.5 µM [cytotoxic, single point] and inconclusive: 75.1 µM [cytotoxic, single point] and inactive | activity change, negative = cytotoxicity [6]: inconclusive: 0.299% [cytotoxic] | Potency [7]: inconclusive: 54.9 µM | Potency [8, 19]: inconclusive: 54.9 µM [rising, single point] | activation [8, 19]: inconclusive: 7.41% | Potency [9]: active: 34.6 µM and active: 30.2 µM | ratio activity, negative = inhibition [10]: inconclusive: -37.9% and inconclusive: -39.5% | Potency [11]: active: 43.6 µM and active: 30.2 µM | Potency [12]: active: 43.6 µM | activity change, negative = inhibition [12]: inconclusive: -30.4%

O=c1[nH]nc(-c2ccc([N+](=O)[O-])o2)o1
Potency [1]: active: 30.6 µM | Potency [2]: inconclusive: 61.1 µM [falling, single point] | Potency [13]: inactive | ratio activity, negative = inhibition [3]: inconclusive: 20.8% | Potency [7]: inactive

O=S(=O)(O)c1ccccc1/C=C/c1ccc(-c2ccc(/C=C/c3ccccc3S(=O)(=O)O)cc2)cc1
Potency [1]: inconclusive: 43.9 µM [rising, partial curve] | Potency [2]: inconclusive: 24.7 µM [rising, partial curve] | Potency [13]: inconclusive: 39.4 µM [fluorescent] | Potency [3]: inconclusive: 35.2 µM [fluorescent, partial curve] | Potency [4]: inconclusive: 55.2 µM [rising, single point] | Potency [8, 19]: inconclusive: 17.6 µM [rising, partial curve] | Potency [9]: inconclusive: 24.9 µM [rising, partial curve, poor fit] | Potency [10]: inconclusive: 39.4 µM [fluorescent] | Potency [14]: inconclusive: 39.4 µM [fluorescent, partial curve] | Potency [15]: active: 31.3 µM | Potency [16]: inconclusive: 44.3 µM [fluorescent, partial curve]

CN(C)c1ccc(N=Nc2ccccc2C(=O)O)cc1
Potency [1]: active: 24.3 µM | Potency [2]: inconclusive: 68.6 µM [falling, single point] | activation [13]: inconclusive: -0.61% | Potency [17]: inconclusive: 24.5 µM [cytotoxic, partial curve, poor fit] | Potency [4]: inconclusive: 68.6 µM [rising, single point] | Potency [5]: active: 61.1 µM | Potency [6]: inconclusive: 8.71 µM [cytotoxic, partial curve] | Potency [7]: inconclusive: 5.71 µM | Potency [18]: inconclusive: 54.9 µM [cytotoxic, single point] | ratio activity, negative = inhibition [10]: inconclusive: -35.7% | Potency [11]: inconclusive: 155 nM [rising, full curve, poor fit]

CCN(CC)c1ccc(C(=C2C=CC(=[N+](CC)CC)C=C2)c2ccc(S(=O)(=O)O)cc2S(=O)(=O)[O-])cc1
Potency [1]: active: 19.3 µM | Potency [2]: active: 19.3 µM | Potency [17]: inconclusive: 19.5 µM [cytotoxic, partial curve, poor fit] | Potency [4]: inactive | Potency [6]: inconclusive: 17.4 µM [cytotoxic, partial curve, poor fit] | Potency [18]: inconclusive: 13.8 µM [cytotoxic, full curve] | viability change, negative = cytotoxic [11]: inconclusive: -30.3% [cytotoxic] | activation [16]: inconclusive: 10.5%

COc1ccc(C(=O)/C(Br)=C\C(=O)O)cc1
Potency [1]: inconclusive: 33.5 µM [cytotoxic, single point] | Potency [2]: inconclusive: 61.1 µM [falling, single point] | Potency [17]: inconclusive: 24.5 µM [cytotoxic, partial curve, poor fit] | Potency [4]: inconclusive: 0.193 µM [falling, partial curve, poor fit] | Potency [5]: inconclusive: 68.6 µM [cytotoxic, single point] | Potency [7]: inconclusive: 14.9 µM | Potency [8, 19]: inconclusive: 61.6 µM | Potency [10]: inconclusive: 38.9 µM [rising, partial curve] | Potency [14]: inconclusive: 49 µM | Potency [15]: inconclusive: 49 µM [fluorescent, single point] | Potency [16]: inconclusive: 61.6 µM | Potency [12]: inconclusive: 49 µM [partial curve]

Oc1ccccc1O
Potency [1]: inconclusive: 61.1 µM [cytotoxic, partial curve] | Potency [2]: inconclusive: 55.1 µM [falling, partial curve] | activation [13]: inconclusive: -11.2% [at 78.9 µM] | Potency [3]: inconclusive: 24.8 µM [rising, partial curve, poor fit] | Potency [5]: inconclusive: 43.8 µM [cytotoxic, partial curve, poor fit] and inconclusive: 61.1 µM [cytotoxic, single point] | Potency [7]: inconclusive: 26.8 µM [activator] | Potency [18]: inactive | activation ([8]; at 62.6 µM (top of the series)): inconclusive: 13.4% | activation ([8]; at 81.1 µM (top of the series)): inconclusive: 10.5% | Potency [9]: inconclusive: 62.4 µM [cytotoxic] and inconclusive: 2.19 µM [cytotoxic, single point] | Potency [10]: inconclusive: 17.6 µM [activator]
